# In article PMC9303297, “Characterization of an autonomous pathway complex that promotes flowering in Arabidopsis” (Nucleic Acids Research, 2022):
# T1: LD-3×Flag, full-length, from yeast (Arabidopsis thaliana, UniProt Q38796 1-953)
# T1 construct: full-length cDNA in frame with 3×Flag in pAT424; source: also co-expressed with APRF1-Myc
# T1 sequence (looked up): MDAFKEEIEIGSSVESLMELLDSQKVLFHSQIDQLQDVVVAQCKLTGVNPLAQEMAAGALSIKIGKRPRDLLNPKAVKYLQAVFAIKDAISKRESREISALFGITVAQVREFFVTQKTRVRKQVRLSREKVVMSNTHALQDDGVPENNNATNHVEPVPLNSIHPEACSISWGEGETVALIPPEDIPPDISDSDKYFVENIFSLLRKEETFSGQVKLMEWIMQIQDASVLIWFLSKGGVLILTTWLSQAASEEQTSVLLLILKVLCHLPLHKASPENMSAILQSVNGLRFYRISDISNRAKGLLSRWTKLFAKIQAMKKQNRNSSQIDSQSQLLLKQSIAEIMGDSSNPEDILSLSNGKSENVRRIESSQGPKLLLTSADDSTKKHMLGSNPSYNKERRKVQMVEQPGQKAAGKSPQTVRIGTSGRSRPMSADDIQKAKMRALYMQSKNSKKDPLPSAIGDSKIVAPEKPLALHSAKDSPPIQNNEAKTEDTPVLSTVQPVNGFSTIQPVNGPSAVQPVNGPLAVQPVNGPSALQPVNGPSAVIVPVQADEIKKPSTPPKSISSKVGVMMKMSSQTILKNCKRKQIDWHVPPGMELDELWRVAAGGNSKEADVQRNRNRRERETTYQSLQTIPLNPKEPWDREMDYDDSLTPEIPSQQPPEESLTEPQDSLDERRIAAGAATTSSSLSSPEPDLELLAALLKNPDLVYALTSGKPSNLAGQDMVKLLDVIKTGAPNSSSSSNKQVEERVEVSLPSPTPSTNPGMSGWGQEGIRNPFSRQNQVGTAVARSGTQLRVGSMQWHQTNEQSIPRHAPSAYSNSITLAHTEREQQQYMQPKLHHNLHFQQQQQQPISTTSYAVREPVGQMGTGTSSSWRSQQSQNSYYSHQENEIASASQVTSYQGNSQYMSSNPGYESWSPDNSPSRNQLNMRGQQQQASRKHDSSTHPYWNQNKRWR
# T2: GST-SDG26, full-length (Arabidopsis thaliana, UniProt Q84WW6 1-492)
# T2 construct: SDG26, Arabidopsis thaliana; cDNA encoding full-length SDG26 in pGEX-6P-1; source: E. coli Transetta (DE3), purified (Glutathione Sepharose 4B)
# T2 sequence (looked up): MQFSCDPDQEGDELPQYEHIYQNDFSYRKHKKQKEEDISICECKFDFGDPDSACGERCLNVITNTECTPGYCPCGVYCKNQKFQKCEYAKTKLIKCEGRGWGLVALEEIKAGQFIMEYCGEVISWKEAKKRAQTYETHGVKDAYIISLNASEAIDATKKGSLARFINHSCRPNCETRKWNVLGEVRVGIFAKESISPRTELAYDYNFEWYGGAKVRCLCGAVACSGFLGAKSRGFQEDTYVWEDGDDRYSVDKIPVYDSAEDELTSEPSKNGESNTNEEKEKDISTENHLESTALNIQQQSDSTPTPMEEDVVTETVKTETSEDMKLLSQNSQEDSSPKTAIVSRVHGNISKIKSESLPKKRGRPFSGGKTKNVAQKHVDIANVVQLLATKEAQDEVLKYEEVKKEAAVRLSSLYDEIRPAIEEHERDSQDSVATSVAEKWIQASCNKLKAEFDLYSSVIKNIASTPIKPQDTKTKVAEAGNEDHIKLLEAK
# Tests used:
# [1] = target: T1, LD-3×Flag, full-length, from yeast; experiment: pull-down; purified Flag-tagged protein (from yeast) mixed with purified GST-tagged protein (from E. coli); Glutathione Sepharose 4B, 4°C, 1 h; 20 mM Tris-HCl pH 7.6, 150 mM NaCl, 1 mM DTT; blots with Flag and GST antibodies; conditions: both partners purified
# [2] = target: T2, GST-SDG26, full-length; experiment: as above; conditions: both partners purified
binding result [2],Binder,binding result [1]
,"GST-FLD, full-length (natural protein, Arabidopsis thaliana, UniProt Q9CAE3 1-789, looked up, FLD (FLOWERING LOCUS D), Arabidopsis thaliana; cDNA encoding full-length FLD in pGEX-6P-1; source: E. coli Transetta (DE3), purified (Glutathione Sepharose 4B)) MVSFSAPKKRRRGRSQRSMSSLNSLPVPNVGLLPGNSNFVSSSASSSGRFNVEVVNGSNQTVKSYPGIGDEIITINKEATTEALLALTAGFPADSLTEEEIEFGVVPIVGGIEQVNYILIRNHIISKWRENISSWVTKEMFLNSIPKHCSSLLDSAYNYLVTHGYINFGIAQAIKDKFPAQSSKSSVIIVGAGLSGLAAARQLMRFGFKVTVLEGRKRPGGRVYTKKMEANRVGAAADLGGSVLTGTLGNPLGIIARQLGSSLYKVRDKCPLYRVDGKPVDPDVDIKVEVAFNQLLDKASKLRQLMGDVSMDVSLGAALETFRQVSGNDVATEEMGLFNWHLANLEYANAGLVSKLSLAFWDQDDPYDMGGDHCFLPGGNGRLVQALAENVPILYEKTVQTIRYGSNGVKVTAGNQVYEGDMVLCTVPLGVLKNGSIKFVPELPQRKLDCIKRLGFGLLNKVAMLFPYVFWSTDLDTFGHLTEDPNYRGEFFLFYSYAPVAGGALLIALVAGEAAHKFETMPPTDAVTRVLHILRGIYEPQGINVPDPLQTVCTRWGGDPFSLGSYSNVAVGASGDDYDILAESVGDGRLFFAGEATTRRYPATMHGAFVTGLREAANMAQSAKARGIRKRIDRNPSRNAHSCAILLADLFRDPDLEFGSFCIIFSRRNPDPKSPAILRVTLSEPRKRNEDPKADQHSNKILFQQLQSHFNQQQQIQVYTLLTRQQALDLREVRGGDEKRLYYLCETLGVKLVGRKGLGVGADSVIASIKAERTGRKLPSSSTSGTKSG",binds
,"GST-EFL4, full-length (natural protein, Arabidopsis thaliana, UniProt Q570U6 1-114, looked up, EFL4, ELF4-like protein, Arabidopsis thaliana; cDNA encoding full-length EFL4 in pGEX-6P-1; source: E. coli Transetta (DE3), purified (Glutathione Sepharose 4B)) MEGDVLSGFGDRHNMDGKLLQSFQKSFVDVQDILDQNRLLINEINQNHESKQPDNLGRNVGLIKELNNNIRRVASLYGDLSHSFARSVDASSEGESSGTLKSDGKANQKRFRSG",binds
binds,"EFL4-3×Flag, full-length, from yeast (natural protein, Arabidopsis thaliana, UniProt Q570U6 1-114, looked up, EFL4, ELF4-like protein, Arabidopsis thaliana; full-length cDNA in frame with 3×Flag in pAT424) MEGDVLSGFGDRHNMDGKLLQSFQKSFVDVQDILDQNRLLINEINQNHESKQPDNLGRNVGLIKELNNNIRRVASLYGDLSHSFARSVDASSEGESSGTLKSDGKANQKRFRSG",
,"GST-EFL2, full-length (natural protein, Arabidopsis thaliana, UniProt Q94BS8 1-119, looked up, EFL2, ELF4-like protein, Arabidopsis thaliana; cDNA encoding full-length EFL2 in pGEX-6P-1; source: E. coli Transetta (DE3), purified (Glutathione Sepharose 4B)) MESRMEGDVYSGFGERYQMDGKLLQNFQKSFVQVQDILDQNRLLINEINQNHESKQADHLGRNVGLIRELNNNIRTVASLYGDLSHSFARSVDASSEGESTGTLKSDGKANNQKRFRSG",binds
binds,"EFL2-3×Flag, full-length, from yeast (natural protein, Arabidopsis thaliana, UniProt Q94BS8 1-119, looked up, EFL2, ELF4-like protein, Arabidopsis thaliana; full-length cDNA in frame with 3×Flag in pAT424) MESRMEGDVYSGFGERYQMDGKLLQNFQKSFVQVQDILDQNRLLINEINQNHESKQADHLGRNVGLIRELNNNIRTVASLYGDLSHSFARSVDASSEGESTGTLKSDGKANNQKRFRSG",
